# Reference: the supplement of paper PMC8728848
# Some of the results follow.
# Columns and labels:
# Assay in all cases: glycan array binding signal (z-score within array); higher = stronger binding
# Details in all cases: glycan notation: IUPAC condensed, linker removed
# [1] = biological target: GlcNAc(b1-3)Man
# In short: (§1)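 Arrays were curated from the Consortium for Functional Glycomics database, 3228 in total, and kept only where the protein sequence was available. Binding is expressed as a within-array Z-score. This score was averaged across arrays of the same protein sequence at different concentrations or buffers and across linkers, and negative values can be read as non-binding.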
# [2] = biological target: GlcNAc(b1-3)[GlcNAc(b1-4)][GlcNAc(b1-6)]GlcNAc
# In short: as §1
# [3] = biological target: GlcNAc(b1-3)[GlcNAc(b1-6)]Gal(b1-4)GlcNAc
# In short: as §1
# [4] = biological target: GlcNAc(b1-3)[GlcNAc(b1-6)]GalNAc
# In short: as §1
# [5] = biological target: GlcNAc(b1-4)Gal(b1-4)GlcNAc
# In short: as §1
# [6] = biological target: GlcNAc(b1-4)GlcNAc
# In short: as §1
# [7] = biological target: GlcNAc(b1-4)GlcNAc(b1-4)GlcNAc
# In short: as §1
# [8] = biological target: GlcNAc(b1-4)GlcNAc(b1-4)GlcNAc(b1-4)GlcNAc(b1-4)GlcNAc
# In short: as §1
# [9] = biological target: GlcNAc(b1-4)GlcNAc(b1-4)GlcNAc(b1-4)GlcNAc(b1-4)GlcNAc(b1-4)GlcNAc
# In short: as §1
# [10] = biological target: GlcNAc(b1-4)[GlcNAc(b1-6)]GalNAc
# In short: as §1
# [11] = biological target: GlcNAc(b1-6)Gal(b1-4)GlcNAc
# In short: as §1
# [12] = biological target: GlcNAc(b1-6)GalNAc
# In short: as §1
# [13] = biological target: GlcNAc6S(b1-3)Gal(b1-4)GlcNAc
# In short: as §1
# [14] = biological target: Kdn(a2-3)Gal(b1-3)GalNAc
# In short: as §1
# [15] = biological target: Kdn(a2-3)Gal(b1-3)GlcNAc
# In short: as §1
# [16] = biological target: Kdn(a2-3)Gal(b1-4)Glc
# In short: as §1
# [17] = biological target: Kdn(a2-3)Gal(b1-4)GlcNAc
# In short: as §1
# [18] = biological target: Kdn(a2-3)Gal(b1-4)[Fuc(a1-3)]GlcNAc
# In short: as §1
# [19] = biological target: Kdn(a2-6)Gal(b1-4)GlcNAc
# In short: as §1
# [20] = biological target: Man(a1-2)Man(a1-2)Man(a1-3)Man
# In short: as §1
# [21] = biological target: Man(a1-2)Man(a1-2)Man(a1-6)[Man(a1-3)]Man
# In short: as §1
# [22] = biological target: Man(a1-2)Man(a1-3)Man
# In short: as §1
# [23] = biological target: Man(a1-2)Man(a1-3)[Man(a1-2)Man(a1-6)]Man
# In short: as §1
# [24] = biological target: Man(a1-2)Man(a1-3)[Man(a1-2)Man(a1-6)]Man(a1-6)[Man(a1-2)Man(a1-2)Man(a1-3)]Man
# In short: as §1
# [25] = biological target: Man(a1-2)Man(a1-3)[Man(a1-2)Man(a1-6)]Man(a1-6)[Man(a1-2)Man(a1-2)Man(a1-3)]Man(b1-4)GlcNAc(b1-4)GlcNAc
# In short: as §1
# [26] = biological target: Man(a1-2)Man(a1-3)[Man(a1-6)]Man(a1-6)[Man(a1-2)Man(a1-3)]Man(b1-4)GlcNAc(b1-4)GlcNAc
# In short: as §1
# [27] = biological target: Man(a1-2)Man(a1-6)[Man(a1-3)]Man(a1-6)[Man(a1-2)Man(a1-2)Man(a1-3)]Man
# In short: as §1
# [28] = biological target: Man(a1-2)Man(a1-6)[Man(a1-3)]Man(a1-6)[Man(a1-2)Man(a1-2)Man(a1-3)]Man(b1-4)GlcNAc(b1-4)GlcNAc
# In short: as §1
# [29] = biological target: Man(a1-3)[Man(a1-6)]Man
# In short: as §1
# [30] = biological target: Man(a1-3)[Man(a1-6)]Man(a1-6)[Man(a1-2)Man(a1-3)]Man(b1-4)GlcNAc(b1-4)GlcNAc
# In short: as §1
# [31] = biological target: Man(a1-3)[Man(a1-6)]Man(a1-6)[Man(a1-3)]Man
# In short: as §1
# [32] = biological target: Man(a1-3)[Man(a1-6)]Man(a1-6)[Man(a1-3)]Man(b1-4)GlcNAc(b1-4)GlcNAc
# In short: as §1
# [33] = biological target: Man(a1-3)[Man(a1-6)]Man(b1-4)GlcNAc(b1-4)GlcNAc
# In short: as §1
# [34] = biological target: Man(a1-3)[Man(a1-6)]Man(b1-4)GlcNAc(b1-4)[Fuc(a1-6)]GlcNAc
# In short: as §1
# [35] = biological target: Man(a1-6)Man
# In short: as §1
# [36] = biological target: Man(b1-4)GlcNAc
# In short: as §1
# [37] = biological target: MurNAc(b1-4)GlcNAc
# In short: as §1
# [38] = biological target: Neu5Ac(a2-3)Gal
# In short: as §1
binder,measurement,setting,value
Na-CTL-1 (Necator americanus) (protein) MQRSFLLLLVVLAGAWAVNTTIPLKLMGGFTPMKYQCVGRVSDIWADVLFLIESSDMITKSGFRQVIAFITATTKKMTIGQDEKQTRVGFITYGEEAKLIYDLDHWRSTEKLSDLVQKIPYVKSSGTNIAAAIALANKVFNSPTHRPNVPKVMVIVANGLKKGSQNPIPVATAFKDFGGIIITIEYTQYDNIQVPILKKIASEGYNIRSNDEDFSVRTLTNMLLQANCFCPDHYVPFRVNNPEFGCFVTAKIPSMWRDAAEMCRAVEEGKLVKVENEEKAAFIMKLVGPKKEAWIGLRYYGNKFQWTDGTKLNADDFNLWPEDIKELNGPHCVSMYQDQKDKKYYWRAGKCLEDMRYVCEVQPCSASNYCSEPVFMYRQKHRALLPAPPPPPN,glycan array binding signal (z-score),[1],-0.488
same,glycan array binding signal (z-score),[2],-0.198
same,glycan array binding signal (z-score),[3],-0.476
same,glycan array binding signal (z-score),[4],-0.058
same,glycan array binding signal (z-score),[5],0.103
same,glycan array binding signal (z-score),[6],-0.188
same,glycan array binding signal (z-score),[7],-0.5
same,glycan array binding signal (z-score),[8],-0.442
same,glycan array binding signal (z-score),[9],0.934
same,glycan array binding signal (z-score),[10],-0.551
same,glycan array binding signal (z-score),[11],-0.301
same,glycan array binding signal (z-score),[12],-0.055
same,glycan array binding signal (z-score),[13],-0.311
same,glycan array binding signal (z-score),[14],-0.14
same,glycan array binding signal (z-score),[15],-0.552
same,glycan array binding signal (z-score),[16],-0.356
same,glycan array binding signal (z-score),[17],-0.056
same,glycan array binding signal (z-score),[18],-0.546
same,glycan array binding signal (z-score),[19],-0.482
same,glycan array binding signal (z-score),[20],0.039
same,glycan array binding signal (z-score),[21],-0.514
same,glycan array binding signal (z-score),[22],-0.24
same,glycan array binding signal (z-score),[23],-0.291
same,glycan array binding signal (z-score),[24],0.15
same,glycan array binding signal (z-score),[25],-0.121
same,glycan array binding signal (z-score),[26],0.06
same,glycan array binding signal (z-score),[27],-0.056
same,glycan array binding signal (z-score),[28],-0.4
same,glycan array binding signal (z-score),[29],0.016
same,glycan array binding signal (z-score),[30],-0.365
same,glycan array binding signal (z-score),[31],-0.192
same,glycan array binding signal (z-score),[32],-0.22
same,glycan array binding signal (z-score),[33],-0.552
same,glycan array binding signal (z-score),[34],-0.097
same,glycan array binding signal (z-score),[35],-0.528
same,glycan array binding signal (z-score),[36],0.099
same,glycan array binding signal (z-score),[37],-0.718
same,glycan array binding signal (z-score),[38],-0.133
